Measured values from the supplement of paper PMC10126150.
Values marked as one replicate rest on one cluster of the flow cell; about a third of the high ones do not repeat.
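Also: ATP exposure 15 min at 22 °C before imaging.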

These sequences were tested on ATP (assay: switch fluorescence ratio, 500 uM ATP over buffer (Cy3 cluster intensity, sum of 5 cycles each) (fold (ratio)); higher = stronger signal-on switching upon ATP binding; sequences stand for … in TCGTCGGCAGCGTCAGATGTGTATAAGAGACAGTTTTTTTTTTTTTTTTTTTTTTTTT…TC). Details: aptamer strand: ATP DNA aptamer (quencher-CACCTGGGGGAGTATTGCGGAGGAAGG + anchor), 100 nM annealed; ATP concentration: 500 uM; one replicate.
Procedure, shortened: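 Values give the fluorescence ratio for each switch-domain sequence, averaged from per-cluster ratios of summed target-cycle to summed buffer-cycle Cy3 intensity. The Cy3-labelled switching-strand clusters sat on a modified Illumina MiSeq flow-cell, were annealed to 100 nM quencher-labelled ATP aptamer, and were imaged in selection buffer, then after 15 min with 500 uM ATP at 22 °C. Five cycles ran with NaOH stripping and re-annealing between them, and clusters outside 100-1000 RFU were excluded.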
AGCCGTGGTC showed a switch fluorescence ratio of 0.999. AGCCTAGGTA gave a switch fluorescence ratio of 0.988. With AGCCTAGTGT the switch fluorescence ratio was 1.02. For AGCCTCTTG, the switch fluorescence ratio was 0.974. With AGCCTGCAG the switch fluorescence ratio was 1.02. Work on AGCCTGTGAA yielded a switch fluorescence ratio of 0.984. Sequence AGCCTGTGCC has a switch fluorescence ratio of 0.981. Sequence AGCCTTGGGC has a switch fluorescence ratio of 0.948. With AGCCTTTTGT the switch fluorescence ratio was 0.988. With AGCGAAAAAT the switch fluorescence ratio was 1.1. For AGCGAAGAAG, the switch fluorescence ratio was 0.992. In the case of AGCGAAGCTA, the switch fluorescence ratio is reported as 0.955. In the case of AGCGAAGTTG, the switch fluorescence ratio is reported as 0.982. For AGCGACTCTT, the switch fluorescence ratio was 1.07. Work on AGCGAGCCCG yielded a switch fluorescence ratio of 0.992. For AGCGAGTGAC, the switch fluorescence ratio was 1.06. Work on AGCGATATGC yielded a switch fluorescence ratio of 1.09. In the case of AGCGATTATG, the switch fluorescence ratio is reported as 1.03. Sequence AGCGCGAATA has a switch fluorescence ratio of 1.09. AGCGCTCCGG gave a switch fluorescence ratio of 0.995. With AGCGCTTAGC the switch fluorescence ratio was 1.08. Work on AGCGCTTTCA yielded a switch fluorescence ratio of 0.976. Sequence AGCGGACCCT has a switch fluorescence ratio of 1.01. Sequence AGCGGATAGT has a switch fluorescence ratio of 1.05. In the case of AGCGGATTTC, the switch fluorescence ratio is reported as 1.02. In the case of AGCGGCTGCC, the switch fluorescence ratio is reported as 0.983. With AGCGGGTTGT the switch fluorescence ratio was 0.987. In the case of AGCGGTCCG, the switch fluorescence ratio is reported as 0.988. With AGCGTACTGT the switch fluorescence ratio was 1.14. In the case of AGCGTATACG, the switch fluorescence ratio is reported as 1.01. In the case of AGCGTATTTG, the switch fluorescence ratio is reported as 0.999. AGCGTCCGGT showed a switch fluorescence ratio of 1.01. AGCGTCTCTA was tested, and the switch fluorescence ratio was 1.03. Work on AGCGTGGGTC yielded a switch fluorescence ratio of 1.05. Sequence AGCGTTTAGC has a switch fluorescence ratio of 0.982. In the case of AGCTAAAATT, the switch fluorescence ratio is reported as 0.997. AGCTAAGTGC gave a switch fluorescence ratio of 1. Work on AGCTACATG yielded a switch fluorescence ratio of 1. For AGCTACGTTG, the switch fluorescence ratio was 0.988. Work on AGCTAGGTGG yielded a switch fluorescence ratio of 0.985. Sequence AGCTCAGACC has a switch fluorescence ratio of 1.05. Work on AGCTCATATG yielded a switch fluorescence ratio of 0.949. Work on AGCTCGTAGC yielded a switch fluorescence ratio of 1.05. For AGCTGAAGCA, the switch fluorescence ratio was 1.06. Work on AGCTGAGTGC yielded a switch fluorescence ratio of 0.986. Sequence AGCTGCCCGA has a switch fluorescence ratio of 1.03. Work on AGCTGCTCTA yielded a switch fluorescence ratio of 1.07. Sequence AGCTGGACGG has a switch fluorescence ratio of 1.03. For AGCTGGGAAT, the switch fluorescence ratio was 0.99. Sequence AGCTGGGGAT has a switch fluorescence ratio of 1.01. With AGCTGGTGTC the switch fluorescence ratio was 1.05. Work on AGCTGTGACG yielded a switch fluorescence ratio of 1.04. AGCTGTTATG was tested, and the switch fluorescence ratio was 0.947. AGCTTAAATA was tested, and the switch fluorescence ratio was 0.971. In the case of AGCTTAAGTC, the switch fluorescence ratio is reported as 0.991. In the case of AGCTTACGAC, the switch fluorescence ratio is reported as 3.94. AGCTTATCTG showed a switch fluorescence ratio of 0.97. AGCTTCGAAT was tested, and the switch fluorescence ratio was 0.992. For AGCTTCGCGG, the switch fluorescence ratio was 0.973. With AGCTTGACCG the switch fluorescence ratio was 1.06. Work on AGCTTGGCGC yielded a switch fluorescence ratio of 1.02. With AGCTTGGCTC the switch fluorescence ratio was 1.08. AGCTTGTGCT showed a switch fluorescence ratio of 1.02. AGCTTTATAA was tested, and the switch fluorescence ratio was 1.03. AGCTTTTAGT gave a switch fluorescence ratio of 0.966. Work on AGGAAAAGGT yielded a switch fluorescence ratio of 0.965. AGGAAAGAGG showed a switch fluorescence ratio of 0.998. AGGAAATGC showed a switch fluorescence ratio of 1.22. AGGAACATGG gave a switch fluorescence ratio of 0.949. In the case of AGGAAGCGCG, the switch fluorescence ratio is reported as 1.01. AGGAAGCTCG gave a switch fluorescence ratio of 0.98. Work on AGGAATCCTA yielded a switch fluorescence ratio of 1.03. Sequence AGGACCCTAT has a switch fluorescence ratio of 1.04. AGGACGCTCT showed a switch fluorescence ratio of 0.98. Sequence AGGACGGATC has a switch fluorescence ratio of 1.05. In the case of AGGACTCTTG, the switch fluorescence ratio is reported as 0.977. AGGACTGCGG gave a switch fluorescence ratio of 0.957. Sequence AGGAGAAGG has a switch fluorescence ratio of 1.03. AGGAGAAGTT was tested, and the switch fluorescence ratio was 1.04. AGGAGAGCGT gave a switch fluorescence ratio of 1. Work on AGGAGATATA yielded a switch fluorescence ratio of 0.992. AGGAGATGAG was tested, and the switch fluorescence ratio was 0.981. With AGGAGCTTAT the switch fluorescence ratio was 1. For AGGAGGAGGT, the switch fluorescence ratio was 1.08. With AGGAGGGCGG the switch fluorescence ratio was 0.999. With AGGAGTAAAG the switch fluorescence ratio was 0.962. Work on AGGATAACGA yielded a switch fluorescence ratio of 1.04. AGGATAGCCA gave a switch fluorescence ratio of 1.02. With AGGATCAGA the switch fluorescence ratio was 1.01. Work on AGGATCCAC yielded a switch fluorescence ratio of 1.01. Work on AGGATGACTC yielded a switch fluorescence ratio of 0.995. In the case of AGGATGCAAC, the switch fluorescence ratio is reported as 1.07. AGGATGTCAG showed a switch fluorescence ratio of 1.03. For AGGATTGACC, the switch fluorescence ratio was 0.998. In the case of AGGATTTTCA, the switch fluorescence ratio is reported as 0.977. AGGATTTTGC showed a switch fluorescence ratio of 0.915. Sequence AGGCAAAG has a switch fluorescence ratio of 1.21. In the case of AGGCAAATCC, the switch fluorescence ratio is reported as 1.03. AGGCAAGCTT gave a switch fluorescence ratio of 0.984. In the case of AGGCACAACA, the switch fluorescence ratio is reported as 1.07. AGGCACAGGC gave a switch fluorescence ratio of 1.08. Work on AGGCACGCTA yielded a switch fluorescence ratio of 1.1. For AGGCAGAGCA, the switch fluorescence ratio was 0.979. With AGGCAGGAG the switch fluorescence ratio was 1. AGGCAGTATG was tested, and the switch fluorescence ratio was 1.08. Sequence AGGCAGTGAA has a switch fluorescence ratio of 1.02. With AGGCATCCGT the switch fluorescence ratio was 0.977. For AGGCATTGTT, the switch fluorescence ratio was 0.985. With AGGCCAAACT the switch fluorescence ratio was 1.01. In the case of AGGCCCGGTT, the switch fluorescence ratio is reported as 1.01. In the case of AGGCCTACGC, the switch fluorescence ratio is reported as 1.24. With AGGCCTCCGT the switch fluorescence ratio was 1.44. With AGGCCTCTTG the switch fluorescence ratio was 1.01. AGGCCTGCAC gave a switch fluorescence ratio of 1.01. Sequence AGGCCTGGGA has a switch fluorescence ratio of 0.971. In the case of AGGCCTTCGT, the switch fluorescence ratio is reported as 1.08. For AGGCGAGACA, the switch fluorescence ratio was 1.02. In the case of AGGCGCAAAG, the switch fluorescence ratio is reported as 1.32. Work on AGGCGCAGAC yielded a switch fluorescence ratio of 1.05. With AGGCGCATGG the switch fluorescence ratio was 1.05. Work on AGGCGCCAGC yielded a switch fluorescence ratio of 0.953. AGGCGCGAGC gave a switch fluorescence ratio of 1.03. In the case of AGGCGCTC, the switch fluorescence ratio is reported as 0.967. AGGCGGACCG gave a switch fluorescence ratio of 0.921. In the case of AGGCGTCTGA, the switch fluorescence ratio is reported as 1.01. AGGCGTTTCC was tested, and the switch fluorescence ratio was 0.984. Sequence AGGCTACAAC has a switch fluorescence ratio of 1.1. In the case of AGGCTACCAA, the switch fluorescence ratio is reported as 1.05. AGGCTCCCAC was tested, and the switch fluorescence ratio was 1.18. For AGGCTCGCCA, the switch fluorescence ratio was 0.972. In the case of AGGCTTTTCT, the switch fluorescence ratio is reported as 0.998. Sequence AGGGAGAGGC has a switch fluorescence ratio of 0.932. AGGGAGATAC gave a switch fluorescence ratio of 1.05. With AGGGAGTCGG the switch fluorescence ratio was 1. Work on AGGGAGTGCA yielded a switch fluorescence ratio of 0.958. For AGGGAGTTAC, the switch fluorescence ratio was 0.996. With AGGGATTCCA the switch fluorescence ratio was 1.01. In the case of AGGGCCAAGG, the switch fluorescence ratio is reported as 0.98. AGGGCCGCAT gave a switch fluorescence ratio of 1.09. With AGGGCCGCTG the switch fluorescence ratio was 1.04. For AGGGCCGGCA, the switch fluorescence ratio was 0.993. AGGGCGAAGG gave a switch fluorescence ratio of 0.982. AGGGCGCACA showed a switch fluorescence ratio of 0.984. For AGGGCGCGGG, the switch fluorescence ratio was 0.948. Sequence AGGGCGCTTA has a switch fluorescence ratio of 0.988. AGGGCGGTCC showed a switch fluorescence ratio of 1.03. For AGGGCTAGTG, the switch fluorescence ratio was 0.985. With AGGGCTTATA the switch fluorescence ratio was 0.97. AGGGGCAGCC showed a switch fluorescence ratio of 1.01. AGGGGCCCTC was tested, and the switch fluorescence ratio was 1.02. In the case of AGGGGCGATG, the switch fluorescence ratio is reported as 0.965. AGGGGCGCAT gave a switch fluorescence ratio of 1.02. For AGGGGCGTTT, the switch fluorescence ratio was 0.958. In the case of AGGGGCTGCT, the switch fluorescence ratio is reported as 1.01. With AGGGGGGAT the switch fluorescence ratio was 0.961. Sequence AGGGGGGTAG has a switch fluorescence ratio of 0.97. Work on AGGGGTCCT yielded a switch fluorescence ratio of 1.02. For AGGGGTGGCC, the switch fluorescence ratio was 1.01. Sequence AGGGTACGCA has a switch fluorescence ratio of 1.06. For AGGGTCGGTC, the switch fluorescence ratio was 1.01. Work on AGGGTCTGCA yielded a switch fluorescence ratio of 1.02. AGGGTGACGC gave a switch fluorescence ratio of 1. Work on AGGGTGATTC yielded a switch fluorescence ratio of 1.02. In the case of AGGGTGGGCC, the switch fluorescence ratio is reported as 0.941. AGGGTTCGCC was tested, and the switch fluorescence ratio was 0.966. AGGGTTCTCA was tested, and the switch fluorescence ratio was 1.02. AGGTAACGGC was tested, and the switch fluorescence ratio was 1.01. AGGTAAGCAA was tested, and the switch fluorescence ratio was 1.58. AGGTACCCCT was tested, and the switch fluorescence ratio was 1. With AGGTACCGGG the switch fluorescence ratio was 1.03. With AGGTACGGCA the switch fluorescence ratio was 1.08. AGGTACTTTA showed a switch fluorescence ratio of 1.01. Sequence AGGTAGGGC has a switch fluorescence ratio of 0.983. AGGTAGTGCA showed a switch fluorescence ratio of 1.01. For AGGTATAAGT, the switch fluorescence ratio was 0.975. Work on AGGTATTAG yielded a switch fluorescence ratio of 0.982. AGGTATTG gave a switch fluorescence ratio of 0.989. For AGGTCATGGA, the switch fluorescence ratio was 0.986. AGGTCCAAGC was tested, and the switch fluorescence ratio was 1.03. AGGTCGAGGT showed a switch fluorescence ratio of 1.02. AGGTCGTAGG was tested, and the switch fluorescence ratio was 0.983. AGGTCGTCGC showed a switch fluorescence ratio of 1.12. AGGTCTAGGT showed a switch fluorescence ratio of 0.952. Sequence AGGTCTGCAT has a switch fluorescence ratio of 1.05. Sequence AGGTCTTCGA has a switch fluorescence ratio of 1.07. AGGTGAAAAA gave a switch fluorescence ratio of 0.972. Work on AGGTGAGGGA yielded a switch fluorescence ratio of 1.03. For AGGTGCATCC, the switch fluorescence ratio was 1. AGGTGCCGAC gave a switch fluorescence ratio of 1.01. For AGGTGGAGTG, the switch fluorescence ratio was 0.955. In the case of AGGTGGATCC, the switch fluorescence ratio is reported as 1. AGGTGGGGGT showed a switch fluorescence ratio of 0.99. AGGTGGTAG showed a switch fluorescence ratio of 0.974. In the case of AGGTGTCAGT, the switch fluorescence ratio is reported as 1.03. Work on AGGTGTTTAT yielded a switch fluorescence ratio of 1.01. AGGTGTTTCT gave a switch fluorescence ratio of 1.05. In the case of AGGTTACTGG, the switch fluorescence ratio is reported as 1. AGGTTACTTT gave a switch fluorescence ratio of 1.01. Sequence AGGTTAGACA has a switch fluorescence ratio of 1.02. For AGGTTAGGCA, the switch fluorescence ratio was 0.987. AGGTTCTGCT gave a switch fluorescence ratio of 0.956.
